Patent US20210179678A1 (NAVIGO PROTEINS, published 2021)

Columns and labels:
[1] = target: T1, fibronectin fragment 67B89 (human ED-B flanked by domains 6, 7 and 8, 9) (human, UniProt P02751-7 1080-1538, biotinylated with EZ-Link Sulfo-NHS-LC-Biotin (preferred N-terminal) for SPR; unlabelled when coated for ELISA); assay: SPR (Biacore 3000), biotinylated 67B89 on streptavidin chip, Affilin injected 0-500 nM, 6789 channel subtracted, 1:1 Langmuir fit
T1 construct: range 1080-1538; The range 1080-1538 is printed once for both 67B89 and the off-target 6789; made in E. coli from pET28a; also called target 67689

[2] = target: T1, fibronectin fragment 67B89 (human ED-B …); assay: concentration dependent ELISA on plates coated with 67B89; Affilin applied in PBS for 1 h; detection with anti-Ubi antibody and anti-IgG-POD, Abs 450-600 nm
Protocol: (§1) The ELISA was carried out in 96-well medium binding plates (Microlon 200, Greiner Bio-One, Kremsmuenster, Austria). Coating with target 67689 and off-target 6789 (both 5 μg/ml in PBS) was performed by overnight incubation at 4° C. The wells were then washed with PBST and blocked with 3% BSA solution for 2 h at room temperature. Various concentrations of Affilin protein were applied on target coated plates in mouse serum for 1 and 24 h at 37° C. Between all incubation steps the wells were washed 3-fold with PBST. For detection of Affilin binding to 67689 anti-Ubi-antibody and anti-IgG-POD were used, followed by TMB Plus (Kem-En-Tec Diagnostics, Taastrup, Denmark) incubation. Measuring the absorbance at 450 nm was carried out with a Sunrise microplate reader (Tecan, Maennedorf, Switzerland).

[3] = target: T1, fibronectin fragment 67B89 (human ED-B …); assay: concentration dependent ELISA on plates coated with 67B89; Affilin applied in mouse serum for 1 h at 37 C; detection with anti-Ubi antibody and anti-IgG-POD, Abs 450-600 nm
Protocol: as §1

[4] = target: T1, fibronectin fragment 67B89 (human ED-B …); assay: concentration dependent ELISA on plates coated with 67B89; Affilin applied in mouse serum for 24 h at 37 C; detection with anti-Ubi antibody and anti-IgG-POD, Abs 450-600 nm
Protocol: as §1

| Kd [1] [nM] | koff [1] [s⁻¹] | kon [1] [M⁻¹ s⁻¹] | Kd [2] [nM] | Kd [3] [nM] | Kd [4] [nM] | Binder |
| --- | --- | --- | --- | --- | --- | --- |
| 0.634 | 0.000783 | 1.24e+06 | 6.7 | 10.6 | 12.3 | Affilin-138800 (designed binder, Strep-tagged form used in ELISA, SPR and cell assays; GG linker between the two ubiquitin muteins; not shown: C-terminal Strep-tag II) MQIFVHTDTGKTITLEVEPSDTIENVKAKIQDKEGIPQDQQRLIWAGKQLEDGRTLSDYNIDPQLKLHLVLRLRAAGGMQIFVTTQTGKTITLEVEPSDTIENVKAKIQDKEGIPPDQQRLIWAGKQLEDGRTLSDYNIDYRFLHLVLRLRAA |
| 3.59 | 0.00691 | 1.93e+06 |  |  |  | Affilin-181493 (designed binder, not shown: C-terminal Strep-tag II) MQIFVHTDTGKTITLEVEPSDTIENVKAKIQDKEGIPQDQQRLIWAGKQLEDGRTLSDYNIDPQLKLHLVLRLRAAGGMQIFVTTQTGKTITLEVEPSDTIENVKAKIQDKEGIPPDQQRLIWAGKQLEDGRTLSDYNIDYRFLHLVLRLALA |
| 4.37 | 0.00665 | 1.52e+06 |  |  |  | Affilin-181492 (designed binder, not shown: C-terminal Strep-tag II) MQIFVHTDTGKTITLEVEPSDTIENVKAKIQDKEGIPQDQQRLIWAGKQLEDGRTLSDYNIDPQLKLHLVLRLRAAGGMQIFVTTQTGKTITLEVEPSDTIENVKAKIQDKEGIPPDQQRLIWAGKQLEDGRTLSDYNIDYRFLHLVLRLGLA |
| 71.1 | 0.0687 | 969000 |  |  |  | Affilin-181491 (designed binder, not shown: C-terminal Strep-tag II) MQIFVHTDTGKTITLEVEPSDTIENVKAKIQDKEGIPQDQQRLIWAGKQLEDGRTLSDYNIDPQLKLHLVLRLRAAGGMQIFVTTQTGKTITLEVEPSDTIENVKAKIQDKEGIPPDQQRLIWAGKQLEDGRTLSDYNIDARFLHLVLRLRAA |
| 0.615 | 0.000948 | 1.54e+06 |  |  |  | Affilin-181490 (designed binder) MQIFVHTDTGKTITLEVEPSDTIENVKAKIQDKEGIPQDQQRLIWAGKQLEDGRTLCDYNIDPQLKLHLVLRLRAAGGMQIFVTTQTGKTITLEVEPSDTIENVKAKIQDKEGIPPDQQRLIWAGKQLEDGRTLSDYNIDYRFLHLVLRLRAA |
| 0.925 | 0.00151 | 1.63e+06 | 1.8 | 0.668 | 1.4 | Affilin-138801 (designed binder, GIG linker between the two ubiquitin muteins; not shown: C-terminal Strep-tag II) MQIFVHTDTGKTITLEVEPSNTIENVKAKIQDKEGIPPDQQRLIWAGKQLEDGRTLSDYNIDPQLKLHLVLRLRAAGIGIQTFVTTQTGETITLEVEPSDTIENVKAKIQDKVGIPPDQQRLIWAGKQLEDGRTLSDYNIDYRYLHLVLRLRAA |
|  |  |  | 1.2 | 0.936 | 2.2 | Affilin-77404 (designed binder, not shown: C-terminal Strep-tag II) MRIWVHTLTGKTITLEVEPSDTIENVKAKIQDKEGIPPDQQRLIWAGKQLEDGRTLSDYNINPKLSLHLVLRLRAAGIGMQIFVHTQTGKTITLEVEPSDTIENVKAKIQDKEGIPPDQQRLIWAGKQLEDGRTLSDYNIGWQAPLHLVLRLRAA |
